The structures appear in SMILES notation. In all, about 48,000 compounds went through this assay and about 450 (0.94%) were called active. Not shown: some 19% with an inconclusive outcome. Calls come from the whole dose curve; as a rule, active = well fitted inhibition curve with a large enough effect; inconclusive = small, poorly fitted or top-dose-only effect; inactive = no such curve, though single readings can be large or run the other way. The list shows a part of the results.
Potency is the fitted concentration of half-maximal effect.

A short description of this assay: Primary qHTS for Identification of Small Molecule Inhibitors of Huntingtin Promoter Activity. Note: nearly all actives have a fitted effect of over 50% in size. Particulars: HEK293 HTT promoter firefly luciferase reporter (activity 0% = vehicle and -100% = no light), 24 h; series mostly up to 57.5 µM; activity change, negative = inhibition: at the top concentration. In short, it runs like this: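 HEK293 cells carrying firefly luciferase reporters were seeded at 2,500 per well in Opti-MEM and cultured for 24 h. They were then treated with compounds at up to 57.5 uM final for 24 h at 37 degrees C before Dual-Glo luminescence readout.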
Background: In qHTS, concentration-response curves come from the screen itself.
In the case of `CCCCn1c(SCC(=O)Nc2ccc(OCC)cc2)nc2ccsc2c1=O`, the “activity change, negative = inhibition” value is inactive: 2.92%. With `Cc1ccc(CNC(=O)CSc2ncc3c(n2)-c2ccc(Cl)cc2N(Cc2ccccc2)S3(=O)=O)cc1`, the “activity change, negative = inhibition” value was inactive: -2.28%. The same measure, in the same setting: the same measure for `Cc1ccc(NS(=O)(=O)c2cc3[nH]c(=O)c(=O)[nH]c3cc2C)cc1N(C)C`: inactive: 9.27%. As to `CCc1ccccc1NC(=O)[C@@H](c1ccccc1)N1Cc2ccccc2C1=O`, the “activity change, negative = inhibition” value was inactive: -16.8%. Same read-out and setting: the same measure for `Cc1ccc(NC(=O)CCCn2c(=O)c3cccn3c3cccnc32)cc1C`: inactive: 3.01%; for `Cc1ncc(CO)c(CO)c1O`: inactive: 6.75%. In the case of `CC(C)CC(=O)Nc1ccccc1OCc1cc(=O)n2ccccc2n1`, the “activity change, negative = inhibition” value is inactive: -2.78%. Turning to `O=C(Nc1ccc(Br)cc1F)N1CCC(CN2CCc3ccccc3C2)CC1`, the “activity change, negative = inhibition” value was inactive: -24.9%. Regarding `COc1ccc(C(=O)COC(=O)CCCC(=O)Nc2cc(C(F)(F)F)ccc2Cl)cc1`, the “activity change, negative = inhibition” value was inactive: 0.104%. For `COc1ccc(OCC(=O)OCc2cc(=O)n3nc(C4CC4)sc3n2)cc1`, the “activity change, negative = inhibition” value was inactive: -26.7%. On to `CCCCOC(=O)c1ccc(NC(=O)c2cc(-c3cccs3)on2)cc1`, for which the “activity change, negative = inhibition” value is inactive: -7.06%. On to `Cc1ccc(Nc2c(-c3ccc(C)s3)nc3ncccn23)cc1`, for which the “activity change, negative = inhibition” value was inactive: 60.4%.

For `CCOC(=O)c1c(NC(=O)/C=C/c2ccc(C)cc2)sc2c1CCCC2`, the “activity change, negative = inhibition” value is inactive: -3.35%. On the same count and under the same terms, the result for `Cc1ccc(CNC(=O)CCCc2nnc3n(C)c(=O)c4sccc4n23)cc1` reads inactive: 1.5%. In the case of `O=C(NCCc1ccc(Cl)cc1)c1cc(-c2ccc(Cl)cc2)n[nH]1`, the “activity change, negative = inhibition” value is inactive: -2.11%. Take `Cc1ccc(NC(=O)C(=O)NCC(c2ccc3c(c2)OCO3)N2CCOCC2)cc1C` (stereo not drawn): the “activity change, negative = inhibition” value was inactive: -12.6%.

For the molecule `CCC(C)NC(=O)c1ccc2nc(CCc3ccccc3)oc2c1` (stereo not drawn), the “activity change, negative = inhibition” value is inactive: 26.8%. As for `CCOc1ccc(NC(=O)CCCc2nnc3n(C)c(=O)c4sccc4n23)cc1`, the “activity change, negative = inhibition” value is inactive: -13.1%.

Regarding `O=C(NCc1ccccc1F)C(=O)NCC(c1ccco1)S(=O)(=O)c1cccs1` (stereo not drawn), the “activity change, negative = inhibition” value is inactive: -14.9%. Take `CC1=C(C(=O)Nc2ccccc2)C(c2cccc(Cl)c2)n2nc(SCC(=O)c3ccc(C)cc3)nc2N1` (stereo not drawn): the “activity change, negative = inhibition” value is inactive: -11.8%. On to `Cc1cccc(OCC(=O)Nc2ccccc2C(=O)OCc2cc(=O)n3nc(C)sc3n2)c1`, for which the “activity change, negative = inhibition” value is inactive: -11.1%.

For `O=C(Nc1ccc2oc(-c3ccc4ccccc4c3)nc2c1)c1ccc(Cl)c(Cl)c1`, the “activity change, negative = inhibition” value was inactive: 1.13%. Turning to `COc1ccc(OC)c(NC(=O)c2cn(CC(C)C)c(=O)c3cc(OC)c(OC)cc23)c1`, the “activity change, negative = inhibition” value was inactive: -0.631%. `CCOc1ccc(-c2oc3ccc(C)cc3c(=O)c2O)cc1`: the “activity change, negative = inhibition” value is inactive: 36.9%. For `Fc1ccc(Nc2ncnc3c2nc2n3CCCCC2)c(F)c1`, the “activity change, negative = inhibition” value is inactive: -11.1%. For `COCCCNC(=O)c1ccc2c(c1)nc(C)n2-c1cccc(C)c1`, the “activity change, negative = inhibition” value is inactive: -21.8%. Regarding `O=C(Nc1ccc(C(=O)OCc2cc(=O)n3nc(C4CC4)sc3n2)cc1)c1cccc(F)c1`, the “activity change, negative = inhibition” value is inactive: -17.7%. Still for that read-out and setting: the result for `CCN(c1ccccc1)S(=O)(=O)c1ccc(NC(=O)c2cc(=O)c3ccccc3o2)cc1` reads inactive: -15%. For `CCOC(=O)c1c(S(=O)(=O)N2CCC(C(=O)Nc3ncccc3C)CC2)c(C)n(C)c1C`, the “activity change, negative = inhibition” value is inactive: -10.5%.

As for `COc1ccc2c(CNC3CCCCCC3)c(C(=O)O)n(Cc3ccccc3F)c2c1`, the “activity change, negative = inhibition” value was inactive: -26.9%. Consider `CCC(=O)N1CCc2cc(Br)cc(S(=O)(=O)CCC(=O)N3CCN(c4cc(C)ccc4C)CC3)c21`, for which the “activity change, negative = inhibition” value is inactive: -8.81%. As to `CCCc1nnc(NC(=O)c2cc(=O)c3cc(C)c(C)cc3o2)s1`, the “activity change, negative = inhibition” value is inactive: -5.4%. Take `CCOC(=O)c1cnc2ccc(C)cc2c1Nc1ccc(N(CC)CC)cc1`: the Potency was active: 25.1 µM. Consider `Cc1ccc(N2CC(NC(=O)CCc3ccccc3)CC2=O)cc1` (stereo not drawn), for which the “activity change, negative = inhibition” value was inactive: -17.6%. For the molecule `CC1=C(C(=O)NCc2ccc(Cl)cc2)C2(CCCCCC2)OC1=O`, the “activity change, negative = inhibition” value was inactive: -28.3%.

As for `COc1ccc(-c2ccc3c(N)c(C(=O)Nc4cccc(C)c4)sc3n2)cc1`, the “activity change, negative = inhibition” value was inactive: 4.16%. On the same count and under the same terms, the same measure for `COc1cccc(CSc2nc3n(n2)C(c2cccnc2)C(C(=O)Nc2ccccc2C)=C(C)N3)c1` (stereo not drawn): inactive: 3.93%; for `COc1ccccc1C(=O)Nc1ccc(C(=O)OCc2cc(=O)n3ccsc3n2)cc1`: inactive: 3.56%; for `Cc1nc2cc(C(=O)O)ccc2n1-c1ccc(C(C)C)cc1`: inactive: 33%. `CCOC(=O)CCn1nc(C)c2c(C)n(-c3ccccc3)nc2c1=O`: the “activity change, negative = inhibition” value is inactive: -15.1%.

Regarding `Cc1cccc(N2CCN(C(=O)Cn3c(=O)c4cccn4c4ccc(F)cc43)CC2)c1C`, the “activity change, negative = inhibition” value is inactive: -4.05%. The same measure, in the same setting: the same measure for `Cc1ccc(NC(=O)c2ccc(Br)cc2)c(C(=O)c2ccccc2)c1`: inactive: -9.65%. The same measure, in the same setting: the same measure for `Cc1nc2nc(SCC(=O)NCc3ccccc3)nn2c(C)c1Cc1ccccc1`: inactive: -23.6%. On to `COc1ccc(OC)c(CNC(=O)CN2C(=O)CCn3nc(-c4cn(C)c5ccccc45)cc32)c1`, for which the “activity change, negative = inhibition” value was inactive: 10.4%. Still for that read-out and setting: the same measure for `CC(=O)Oc1ccccc1C(=O)O`: “inactive”; for `CCc1cccc(NC(=O)CN2C=NS(=O)(=O)c3ccccc32)c1`: inactive: -22.3%; for `CCOc1nc(NC(=O)NS(=O)(=O)Oc2ccccc2Cl)nc(-c2ccccc2)n1`: inactive: 49.9%.

As to `COc1cc2nc(NCC(C)c3ccccc3)n3nc(-c4ccccc4)nc3c2cc1OC` (stereo not drawn), the “activity change, negative = inhibition” value was inactive: 2.56%. For the molecule `Cc1ccc(C)n1-c1nnc(N2CCCC(C(=O)NCc3ccccc3)C2)s1` (stereo not drawn), the “activity change, negative = inhibition” value was inactive: -3.67%.

In the case of `Cc1ccc(NC(=O)CCc2c(C)nc3nc(C)nn3c2C)c(Cl)c1`, the “activity change, negative = inhibition” value was inactive: -11.7%. For `CCOC(=O)c1ccccc1NC(=O)N(Cc1ccco1)C1CCN(C(C)=O)CC1`, the “activity change, negative = inhibition” value is inactive: -14%. For the molecule `CNC(=O)c1ccc(Nc2nnc(-c3ccc(C)c(S(=O)(=O)N4CCOCC4)c3)c3ccccc23)cc1`, the “activity change, negative = inhibition” value is inactive: 2.49%. Still for that read-out and setting: the result for `O=C(c1ccco1)n1nc(-c2ccccc2)nc1NCc1ccccc1Cl` reads inactive: -4.78%; that for `Cc1ccc(N(Cc2cccs2)C(=O)COc2ccccc2[N+](=O)[O-])cc1`, inactive: -31.1%. As to `Cc1cccc(-c2nc(Cn3c(SCc4cc(C)ccc4C)nc4ccncc43)c(C)o2)c1`, the “activity change, negative = inhibition” value was inactive: -13.1%. Still for that read-out and setting: the same measure for `O=C(NCc1ccccc1Cl)C1CCC(CNS(=O)(=O)c2ccc(Br)s2)CC1` (stereo not drawn): inactive: -7.89%; for `Cc1ccc(-c2nn3c(-c4ccc(C)cc4)nnc3c3ccccc23)cc1`: inactive: -3.73%. The same measure, in the same setting: the same measure for `CNS(=O)(=O)CCc1ccc2[nH]cc(C3CCN(C)CC3)c2c1`: inactive: -4.53%; for `COc1ccccc1-n1c(SCC(=O)Nc2ccc(C)cc2)nc(O)cc1=O`: inactive: -16.1%. In the case of `COc1cc(CN(C(=O)c2oc3ccccc3c2C)C2CCS(=O)(=O)C2)cc(OC)c1OC` (stereo not drawn), the “activity change, negative = inhibition” value was inactive: -4.08%.

Take `COc1cccc(NC(=O)c2cc3c(=O)n(Cc4cccnc4)ccc3nc2C)c1`: the “activity change, negative = inhibition” value was inactive: 1.11%. As to `Cc1ccc(-c2nc(S(=O)(=O)c3ccc(C)cc3)c(SCC(=O)NC3CCCCC3)o2)cc1`, the “activity change, negative = inhibition” value was inactive: -20%. On to `COc1ccc(-c2noc(-c3ccc(NC(C)c4ccccc4)c([N+](=O)[O-])c3)n2)cc1OC` (stereo not drawn), for which the “activity change, negative = inhibition” value was inactive: -10.2%.

Values taken from PubChem BioAssay AID1508623 (National Center for Advancing Translational Sciences (NCATS), 2021).
